This note sets out measurements from the supplement of paper PMC11417369.

Some of the results follow.

The test relates to PfHDP1 homeodomain (GST-tagged). The test can be described thus: gcPBM binding intensity (ln(normalized median fluorescence intensity)); higher = stronger DNA binding. The essentials:
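An Agilent 4 × 180k array carrying primer-extended double-stranded 36-bp intergenic genomic probes and negative controls received GST-tagged P. falciparum DNA-binding domains expressed in E. coli, about 25 μg on average, for 1 h. The binding buffer contained 1× PBS, 1% milk, 0.2 mg/ml BSA, 0.5% salmon testes DNA and 0.03% Triton X-100. Binding intensity is the top Masliner-normalised natural-log median intensity across replicate spots of either probe orientation, read after Alexa488 anti-GST antibody staining and a 488 nm scan.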
In the case of “TAAATAATCGCATAATGTACATATAATTTTTTTTTT [XGTACX_site4880]”, the “gcPBM binding intensity (ln)” value came to 6.23. To “CCAATTCAAATATGCACACAAATTTGAAAACGATTA [CACACA_site3607]” belongs 10.1; to “CTTTTGCCCAAAAAGGTACACACCACAATGTACATA [CACACA_site809]”, 6.71.

For “GTTAATATACATAAACGTACAGAATTATTATGAGTT [XGTACX_site5185]”, the “gcPBM binding intensity (ln)” value is 6.19.

With “TTTTTTATTGTGATACGTATATTATTTTATGATAAA [CACACA_negctrl_site1591]”, the “gcPBM binding intensity (ln)” value worked out at 6.61. With “TAAAAATGTAAACACACACACATAAATATATTTTAT [CACACA_site5397]”, the “gcPBM binding intensity (ln)” value stood at 6.92.

With “ATATAGTAAAGTTATACACACATGAATTTTCCCATA [CACACA_site7457]”, the “gcPBM binding intensity (ln)” value stood at 6.51. Consider “ATATTTTAATTATAAAGTACATAAAAATATATAAAC [XGTACX_site6705]”, for which the “gcPBM binding intensity (ln)” value is 6.27. On to “AAAGATGGAGTGATATGTACTGATATATTATTATAT [XGTACX_site6500]”, for which the “gcPBM binding intensity (ln)” value was found to be 6.4.

Turning to “AAGCATAAAGTATATAGTACATATATATATATATAT [XGTACX_site2945]”, the “gcPBM binding intensity (ln)” value was found to be 9.27. Take “ATTAAAAAATCCATAGTGCACTACGATAGGTTCCGA [GTGCAC_site9463]”: the “gcPBM binding intensity (ln)” value worked out at 10.3. As to “ATTTTTTTTTTTTTTGAACACACATTATTAATTTTT [CACACA_site7990]”, the “gcPBM binding intensity (ln)” value came to 6.57. Consider “ATATATTTTATATAGTGTACTTTAATTTTTTTTTTT [XGTACX_site5550]”, for which the “gcPBM binding intensity (ln)” value is 5.93.

Regarding “ATATATATATATGTTAGTACTTATATTGAAATGGTA [XGTACX_site1406]”, the “gcPBM binding intensity (ln)” value turned out to be 9.06.

In the case of “ATAAATAAAACAAAATGTACAAATATTCATATATTC [XGTACX_site1307]”, the “gcPBM binding intensity (ln)” value amounted to 6.27.

Regarding “TTTCATTTCACAGACACACACACACCCTATATTTCC [CACACA_site3906]”, the “gcPBM binding intensity (ln)” value amounted to 7.09.

With “TTATTTACCTATTATAGTACATATAATTAATATAAT [XGTACX_site5724]”, the “gcPBM binding intensity (ln)” value came to 6.35. As for “ATCTTTCGTACATGTACACACAGAAAAAAAAAAAAA [CACACA_site2502]”, the “gcPBM binding intensity (ln)” value came to 6.38. For the sequence “GTGTAATCATATAAGGGTACAAAAAATGTCTAACAA [XGTACX_site8122]”, the “gcPBM binding intensity (ln)” value was 6.9.

Turning to “GTTCCCATAAATAAATGTACATATTATATATATATA [XGTACX_site3242]”, the “gcPBM binding intensity (ln)” value was found to be 8.73. As for “ATTCATATCTACTTCACACACATTTGATCATTCAAA [CACACA_site7207]”, the “gcPBM binding intensity (ln)” value was determined as 6.94. As to “AAAATCTATATTAACACACACACAAAAAAAAAAAAA [CACACA_site6738]”, the “gcPBM binding intensity (ln)” value is 6.37. “ATAGTATTTTTTATTACACACAAATAAAAAGAAAAA [CACACA_site2087]”: the “gcPBM binding intensity (ln)” value amounted to 6.55.

Turning to “ATGAAACAGTAACATTGTACTTTTACAAAAAAATAA [XGTACX_site806]”, the “gcPBM binding intensity (ln)” value was 6.25.

For “TTTAAAAAAAATATGTGTACTTAATATTTTCATATA [XGTACX_site7421]”, the “gcPBM binding intensity (ln)” value amounted to 6.08. “TACATATAAATAATAACACACACCTAGGTACATGGA [CACACA_site838]”: the “gcPBM binding intensity (ln)” value was 6.57. As to “AGAAAGGAGGAAATAAAAGGACTTCTTTTTTTATAT [CACACA_negctrl_site810]”, the “gcPBM binding intensity (ln)” value stood at 6.05. For “CATACACAGAAACACACACACATATATATATATATA [CACACA_site4519]”, the “gcPBM binding intensity (ln)” value was 9.34. Consider “TAATTAATATATTTTTGTACTTATATATTTGCGTAT [XGTACX_site340]”, for which the “gcPBM binding intensity (ln)” value came to 6.4. Turning to “AATCCACAAAGACACACACACACATATATATATATA [CACACA_site1269]”, the “gcPBM binding intensity (ln)” value stood at 9.47. The figure for “ATTTTTGATTTTAAAAGTACATAAGTATACTATTTA [XGTACX_site7162]” is 5.98; for “TTTTGTAATTTTGTATGTACACATTAAAGTAATATG [XGTACX_site2401]” it is 6.39.

Take “TTATAATATATATGTGGTACTTATTTATTTATTTAT [XGTACX_site7572]”: the “gcPBM binding intensity (ln)” value is 6.37. As to “AAAATTCTTCGGGGGAGTACAAGGATATTCTACGTT [XGTACX_site3974]”, the “gcPBM binding intensity (ln)” value was 7.4.

Turning to AAAAATAAAATGATGGTGCACATAAAGTATGGTTAC, the “gcPBM binding intensity (ln)” value came to 9.66.

Take “ATTGAAAATTATTTACCTTCTTTGAAAGAACAAATG [CACACA_negctrl_site1736]”: the “gcPBM binding intensity (ln)” value was determined as 6.03. Take “ATAAATAAATTTATACGTACACATAATATATATATA [XGTACX_site4634]”: the “gcPBM binding intensity (ln)” value turned out to be 8.63. Consider “TAAAAAAAAAAAAAAAGTACCCATACTATATTACAT [XGTACX_site946]”, for which the “gcPBM binding intensity (ln)” value was determined as 6.22. As for “TTACTAAACTTATATGTACACACATATAACATTAAT [CACACA_site8710]”, the “gcPBM binding intensity (ln)” value worked out at 7.03. For the sequence “GTAAAAATTTCATATTCACACACAAAAAAAAAAAAT [CACACA_site8457]”, the “gcPBM binding intensity (ln)” value amounted to 6.76. For the sequence “AGTAGTCTGGAGAAGAGTACATAGTATCTGATAACC [XGTACX_site2044]”, the “gcPBM binding intensity (ln)” value turned out to be 6.6. On to “AAGAATTTTACAAAATGTACTTATGTTTTGTTTTAC [XGTACX_site5632]”, for which the “gcPBM binding intensity (ln)” value stood at 6.14. As for AAAAAAAAAATACAGGTGCAATAAGAAAAAAATGGT, the “gcPBM binding intensity (ln)” value turned out to be 9.85. With “TATATTAACAAAATGGTGCAATAATTTCTATATTAT [GTGCAC_site9857]”, the “gcPBM binding intensity (ln)” value turned out to be 10.5.
